The assay has as its system Plasmodium falciparum NF54 stage V gametocytes. Briefly: viability index relative to DMSO control (fraction); higher = less gametocyte killing. Conditions: 2.5 µM, incubation time: 72 h. The method in brief:
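P. falciparum NF54 stage V gametocytes in serum-free screening medium (0.75% gametocytemia, 1.25% hematocrit, 10 µl) were incubated with compound at 2.5 µM in 1,536-well plates for 72 hr at 37°C under low oxygen. Then 3 µl of 2.5 µM MitoTracker Red CMXRos plus 0.13% saponin was added for one to two hours. One field per well was imaged, 20–70 µm2 red particles were counted, and the viability index was the count divided by the plate mean of DMSO wells.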

The mark [1] stands for this setting: library set: Broad Institute DOS.

We go through 70 compounds from the supplement of paper PMC4723716.

± gives the uncertainty stated by the source. The full ranking holds about 9,900 compounds; the median of “viability index relative to DMSO control” is about 1, and the lowest 2% start at about 0.85. Some of the results follow.

With `N#C[C@@H]1[C@H](c2ccccc2)[C@@H](CO)N1C(=O)c1cc(Cl)cc(Cl)c1`, under setting [1], the viability index worked out at 1.1 ± 0.044.
Under setting [1], `C/C=C/c1ccc2n(c1=O)C[C@H]1[C@H](CO)[C@@H](C(=O)NCCC)[C@@H]2N1Cc1ccccc1OC.C/C=C\c1ccc2n(c1=O)C[C@H]1[C@H](CO)[C@@H](C(=O)NCCC)[C@@H]2N1Cc1ccccc1OC` yielded a viability index of 1.079 ± 0.0033.
Still for that read-out and setting: the figure for `COc1ccc(S(=O)(=O)N(C)C[C@@H]2Oc3ccc(NC(=O)Nc4ccc(C(F)(F)F)cc4)cc3C(=O)N([C@@H](C)CO)C[C@@H]2C)cc1` is 0.909 ± 0.049; for `CCNC(=O)[C@H]1[C@H](CO)[C@H]2Cn3c(cccc3=O)[C@H]2N1C(=O)CC1CC1` it is 1.08 ± 0.066; for `C[C@H](CO)N1C[C@H](C)[C@@H](CN(C)C(=O)Nc2ccc(C(F)(F)F)cc2)Oc2c(NC(=O)c3ccc(-c4nccs4)cc3)cccc2C1=O` it is 0.953 ± 0.018.
Take `COc1ccc(C#Cc2ccc3c(c2)[C@H]2[C@H](CCN2C(=O)c2cnccn2)[C@H](CO)N3)cc1`: the viability index under setting [1] came to 1.09 ± 0.038.
The same measure, in the same setting: then `CO[C@H]1CC[C@H]2CCOc3c(C#N)cccc3C(=O)N(C)C[C@H](OC)[C@@H](C)C(=O)N(C)C[C@@H]1O2`, with 1.05 ± 0.082; and `COc1ccc(CN(C)C[C@H]2OCc3cnnn3CCCC(=O)N([C@@H](C)CO)C[C@@H]2C)cc1`, with 1 ± 0.038.
`O=C(C[C@H]1C=C[C@@H](NC(=O)Nc2ccccc2F)[C@H](CO)O1)NCc1ccc(-c2ccccc2)cc1`: under setting [1], the viability index was 1.07 ± 0.026.
As to `O=C(C[C@@H]1C=C[C@@H](NC(=O)CCN2CCCCC2)[C@@H](CO)O1)Nc1nccs1`, the viability index under setting [1] was found to be 0.966 ± 0.058.
On the same count and under the same terms, the figure for `O=C(NC[C@H]1[C@@H](c2ccccc2)[C@H](CO)N1C(=O)C1CCC1)NC1CCCC1` is 1.09 ± 0.049.
The compound `O=C(Nc1ccc(F)cc1)N1CC(=O)N2[C@@H](CO)[C@@H](c3ccc(C#Cc4cccnc4)cc3)[C@@H]2C1` had a viability index under setting [1] of 1.05 ± 0.024.
The same measure, in the same setting: then `CC(C)NC(=O)N1CC(=O)N2[C@H](CO)[C@@H](c3ccc(/C=C/c4ccccc4)cc3)[C@@H]2C1`, with 1.03 ± 0.035.
As to `CO[C@H](CN(C)S(=O)(=O)c1ccc(C)cc1)[C@H](C)CN(C(=O)Nc1ccccc1F)[C@@H](C)CO`, the viability index under setting [1] worked out at 0.986 ± 0.025.
The compound `O=C(NCC[C@H]1CC[C@H](NC(=O)c2ccncc2)[C@@H](CO)O1)Nc1ccc(Cl)cc1` gave a viability index under setting [1] of 1.06 ± 0.069.
Compound `CO[C@@H]1CC[C@H]2CCN(C)C(=O)[C@H](C)N(C)C(=O)c3cccc(C#N)c3OC[C@H]1O2` registered a viability index under setting [1] of 0.999 ± 0.04.
Compound `COc1ccc(NC(=O)N2CC(=O)N3[C@@H](CO)[C@H](c4ccc(Br)cc4)[C@@H]3C2)cc1` had a viability index under setting [1] of 1.06 ± 0.088.
As for `C[C@@H]1CN([C@H](C)CO)C(=O)c2ccccc2-c2ccccc2CO[C@H]1CN(C)S(=O)(=O)c1cccc(C#N)c1`, the viability index under setting [1] was 1.02 ± 0.083.
On the same count and under the same terms, then `COc1cccc(C(=O)Nc2ccc3c(c2)OC[C@H](C)N(CCc2ccccc2)C[C@H](C)[C@H](OC)CN(C)C3=O)c1`, with 1.05 ± 0.053.
In the case of `C[C@@H]1CN([C@@H](C)CO)S(=O)(=O)c2ccc(C#Cc3cccc(F)c3)cc2O[C@H]1CN(C)S(=O)(=O)c1cn(C)cn1`, the viability index under setting [1] is 0.9366 ± 0.0027.
On the same count and under the same terms, the figure for `CCS(=O)(=O)N1CC2(C1)[C@H](c1ccccc1)[C@H](CO)N2C(=O)c1ccccc1` is 1.07 ± 0.07; for `COc1ccccc1-c1ccc([C@@H]2[C@H](CO)N(CC3CC3)C23CN(S(C)(=O)=O)C3)cc1` it is 1.03 ± 0.094.
`COCC(=O)N1CC[C@@H]2[C@H](CO)Nc3ccc(C#Cc4ccc(F)cc4)cc3[C@@H]21` yielded a viability index under setting [1] of 1.09 ± 0.049.
Turning to `O=C(N[C@@H]1CC[C@H](CCNS(=O)(=O)c2ccc(F)cc2)O[C@@H]1CO)C1CCC1`, under setting [1], the viability index was found to be 1.13 ± 0.12.
Compound `CCS(=O)(=O)N1Cc2cc(C(=O)N(C)C)nc(-c3cccc(-c4ccc(C#N)cc4)c3)c2[C@@H]1CCO` had a viability index under setting [1] of 1.01 ± 0.035.
Under setting [1], `COc1ccc2c3c([nH]c2c1)[C@@H](CO)N(C[C@]31CCN(Cc2cc(on2)-c2ccccc2)CC1)C(C)=O` came in with a viability index of 0.936 ± 0.02.
In turn, `COc1ccc(S(=O)(=O)N(C)C[C@H]2Oc3ccc(N(C)C)cc3CC(=O)N([C@@H](C)CO)C[C@@H]2C)cc1` registered a viability index under setting [1] of 1.01 ± 0.074.
With `O=C(Nc1ccccc1F)N[C@@H]1CC[C@H](CCNC(=O)C2CC2)O[C@@H]1CO`, under setting [1], the viability index came to 1.068 ± 0.0055.
On the same count and under the same terms, then `COc1cccc(C#Cc2ccc3c(c2)[C@H]2[C@H](CCN2C(=O)c2ccccc2F)[C@H](CO)N3)c1`, with 1.09 ± 0.023; and `CCS(=O)(=O)Nc1ccc2c(c1)C(=O)N(C)[C@H]1CC[C@@H](CC(=O)N3CCN(C)CC3)O[C@@H]1CO2`, with 1.08 ± 0.13.
`CCC(=O)N1[C@H](CO)[C@H]2c3ccccc3N(S(=O)(=O)c3ccc(F)cc3)C[C@H]21` yielded a viability index under setting [1] of 0.958 ± 0.067.
Turning to `CN1C[C@H](O)COC[C@@H]2O[C@H](CC(=O)NC3CCCC3)CC[C@H]21`, the viability index under setting [1] turned out to be 1.09 ± 0.066.
Same read-out and setting: the figure for `C[C@H]1CCCCO[C@H](CN(C)C(=O)NC2CCCCC2)[C@@H](C)CN([C@@H](C)CO)C(=O)c2cc(N(C)C)ccc2O1` is 1.17 ± 0.098; for `C[C@@H]1CN([C@H](C)CO)C(=O)c2ccccc2-c2ccccc2CO[C@@H]1CN(C)S(=O)(=O)c1ccc([N+](=O)[O-])cc1` it is 0.969 ± 0.06; for `CO[C@H]1CN(C)C(=O)c2cc(NC(=O)c3ccc(Oc4ccccc4)cc3)ccc2OC[C@@H](C)NC[C@H]1C` it is 1.05 ± 0.043.
`COc1ccc(CN2C[C@]3(CN(C3)S(=O)(=O)c3ccc(C)cc3)c3c([nH]c4cc(OC)ccc34)[C@H]2CO)cc1` showed a viability index under setting [1] of 0.793 ± 0.014.
Still for that read-out and setting: the figure for `CS(=O)(=O)Nc1ccc2c(c1)[C@H]1C[C@@H](CC(=O)NCc3cc(F)ccc3F)O[C@H](CO)[C@H]1O2` is 1.04 ± 0.013; for `C/C=C/c1ccc([C@@H]2[C@H]3CNC[C@@H]2N3C(=O)Nc2ccccc2Cl)cc1` it is 1.04 ± 0.051; for `COc1ccc(S(=O)(=O)N(C)C[C@@H]2Oc3c(NC(=O)c4nc5ccccc5s4)cccc3C(=O)N([C@H](C)CO)C[C@H]2C)cc1` it is 1.02 ± 0.054.
The same measure, in the same setting: then `COC(=O)C[C@H]1CC[C@H]2[C@@H](COc3ccc(NC(=O)Nc4cccc(C#N)c4)cc3C(=O)N2C)O1`, with 1.138 ± 0.0038; and `COc1cccc(C(=O)Nc2ccc3c(c2)C(=O)N(C)[C@@H]2CC[C@@H](CC(=O)N[C@H](C)c4ccccc4)O[C@H]2CO3)c1`, with 1.15 ± 0.081; and `Cc1ccc(-c2ccccc2[C@H]2[C@@H](C#N)N(S(C)(=O)=O)[C@@H]2CO)cc1`, with 1.11 ± 0.053.
Under setting [1], `Cc1cc(C(=O)Nc2ccc3c(c2)C(=O)N(C)[C@H]2CC[C@H](CC(=O)O)O[C@H]2CO3)no1` came in with a viability index of 1.05 ± 0.027.
Under setting [1], `O=C(O)[C@@H]1[C@@H](CO)[C@@H]2Cn3c(ccc(/C=C/c4ccccc4)c3=O)[C@@H]2N1Cc1ccc2c(c1)OCO2` had a viability index of 1.08 ± 0.071.
Consider `C[C@H](CO)N1C[C@H](C)[C@H](CN(C)C(=O)NC2CCCCC2)OCCCC[C@H](C)Oc2ccc(N(C)C)cc2C1=O`, for which the viability index under setting [1] worked out at 0.9597 ± 0.0078.
As to `O=C(NC1CCCC1)N[C@H]1C=C[C@@H](CC(=O)N2CCOCC2)O[C@@H]1CO`, under setting [1], the viability index worked out at 1.2 ± 0.013.
On to `CO[C@@H](CN(C)C(=O)c1ccc2c(c1)OCO2)[C@H](C)CN([C@@H](C)CO)S(=O)(=O)c1ccc(Cl)cc1`, for which, under setting [1], the viability index is 1.02 ± 0.018.
Still for that read-out and setting: then `CCCC#Cc1ccc([C@@H]2[C@H](CO)N3C(=O)CN(C(=O)Nc4cccc(F)c4)C[C@@H]23)cc1`, with 1.07 ± 0.074; and `O=C(N[C@@H]1CC[C@@H](CCNS(=O)(=O)c2ccc(F)cc2)O[C@H]1CO)C1CCC1`, with 1.15 ± 0.12; and `COCC(=O)N1[C@H](CO)[C@H]2c3ccccc3N(C)C[C@H]21`, with 1.08 ± 0.042.
`C[C@H](NC(=O)C[C@@H]1CC[C@@H]2[C@H](COC[C@H](O)CN2C(=O)Nc2cccc(Cl)c2)O1)c1ccccc1` displayed a viability index under setting [1] of 1.09 ± 0.051.
The compound `COc1cccc(-c2cn(CC[C@@H]3CC[C@@H](NS(=O)(=O)c4ccccc4Cl)[C@H](CO)O3)nn2)c1` returned a viability index under setting [1] of 0.915 ± 0.058.
For `COc1ccc(S(=O)(=O)N(C)C[C@H]2Oc3ccc(NC(=O)Nc4ccc(C(F)(F)F)cc4)cc3C(=O)N([C@@H](C)CO)C[C@H]2C)cc1`, the viability index under setting [1] was 1.06 ± 0.014.
Same read-out and setting: the figure for `CCS(=O)(=O)N1[C@H](C#N)[C@@H](c2ccc(C#CCC3CCCC3)cc2)[C@@H]1CO` is 1.0889 ± 0.00066; for `Cn1cnc(S(=O)(=O)N2C[C@@H]3N[C@H](C2)[C@@H]3c2ccc(-c3ccccc3F)cc2)c1` it is 1.11 ± 0.017.
`O=C(C1CC1)N1CC[C@H]2[C@H](CO)Nc3ccc(Br)cc3[C@H]21` showed a viability index under setting [1] of 1.03 ± 0.024.
In the case of `C[C@@H]1CN([C@H](C)CO)C(=O)Cc2cc(NS(=O)(=O)c3ccc(F)cc3)ccc2O[C@H]1CN(C)Cc1ccncc1`, under setting [1], the viability index was 1.07 ± 0.045.
In the case of `C[C@@H](NC(=O)C[C@H]1CC[C@@H]2[C@H](COc3ccc(NC(=O)C4CCOCC4)cc3C(=O)N2C)O1)c1ccccc1`, the viability index under setting [1] is 1.14 ± 0.078.
Compound `CCCNC(=O)N1[C@H](C#N)[C@H](c2ccc(C#Cc3ccc(F)cc3)cc2)[C@@H]1CO` returned a viability index (library set: Broad Institute Blood Stage) of 0.844 ± 0.021.
Compound `COc1ccccc1NC(=O)N1C[C@@H]2[C@H](c3ccccc31)[C@H](CO)N2Cc1ccc2c(c1)OCO2` showed a viability index under setting [1] of 0.975 ± 0.038.
Consider `O=C(c1ccccn1)N1CC[C@@H]2[C@@H](CO)Nc3ccc(Br)cc3[C@@H]21`, for which the viability index under setting [1] was determined as 1.14 ± 0.095.
In turn, `O=C(c1ccccn1)N1C[C@@H]2[C@H](c3ccccc31)[C@H](CO)N2C(=O)Nc1ccccc1Cl` gave a viability index under setting [1] of 1.05 ± 0.039.
The same measure, in the same setting: then `COc1ccc(S(=O)(=O)Nc2ccc3c(c2)C(=O)N([C@H](C)CO)C[C@H](C)[C@@H](CN(C)C(=O)Nc2c(C)noc2C)OCCCC[C@@H](C)O3)cc1`, with 1.08 ± 0.045; and `COc1ccccc1S(=O)(=O)N1[C@@H]2CNC[C@H]1[C@H]2c1ccc(-c2ccncc2)cc1`, with 1.15 ± 0.016; and `O=C(C1CCOCC1)N1CC[C@@H]2[C@H](CO)Nc3ccc(-c4cccc(F)c4)cc3[C@@H]21`, with 1.11 ± 0.0031.
Still for that read-out and setting: then `COc1ccc(NC(=O)N(C)C[C@H]2Oc3ccc(NC(=O)CCN4CCOCC4)cc3C(=O)N([C@@H](C)CO)C[C@H]2C)cc1`, with 1.01 ± 0.086; and `CS(=O)(=O)N1CC2(C1)[C@H](c1ccccc1)[C@H](CO)N2Cc1ccccc1`, with 1.12 ± 0.062.
Take `C[C@H](CO)N1C[C@H](C)[C@H](CN(C)Cc2ccccc2C(=O)O)Oc2cc(-c3ccc(F)cc3)ccc2S1(=O)=O`: the viability index under setting [1] amounted to 0.983 ± 0.054.
Under setting [1], `O=C(Cc1ccccn1)N[C@@H]1CC[C@@H](CCNS(=O)(=O)c2cccc(F)c2)O[C@H]1CO` returned a viability index of 1.03 ± 0.099.
Turning to `O=C(c1cnccn1)N1CC(=O)N2[C@H](CO)[C@H](c3ccc(-c4cccc(F)c4)cc3)[C@H]2C1`, under setting [1], the viability index was determined as 1.055 ± 0.0042.
